Over roughly 33,000 sequences, “E-score (-0.5 to 0.5)” has its median near -0.012; the highest 2% begin near 0.29. This is one part of the list.
molecular target: T1, Ybr033w (UniProt P38073); assay: PBM E-score (8-mer binding enrichment) (E-score (-0.5 to 0.5)); higher = stronger / more preferred TF binding; most listed sequences are background and not binding sites; details: protein concentration: 200 nM; construct: GST-full length
T1 sequence: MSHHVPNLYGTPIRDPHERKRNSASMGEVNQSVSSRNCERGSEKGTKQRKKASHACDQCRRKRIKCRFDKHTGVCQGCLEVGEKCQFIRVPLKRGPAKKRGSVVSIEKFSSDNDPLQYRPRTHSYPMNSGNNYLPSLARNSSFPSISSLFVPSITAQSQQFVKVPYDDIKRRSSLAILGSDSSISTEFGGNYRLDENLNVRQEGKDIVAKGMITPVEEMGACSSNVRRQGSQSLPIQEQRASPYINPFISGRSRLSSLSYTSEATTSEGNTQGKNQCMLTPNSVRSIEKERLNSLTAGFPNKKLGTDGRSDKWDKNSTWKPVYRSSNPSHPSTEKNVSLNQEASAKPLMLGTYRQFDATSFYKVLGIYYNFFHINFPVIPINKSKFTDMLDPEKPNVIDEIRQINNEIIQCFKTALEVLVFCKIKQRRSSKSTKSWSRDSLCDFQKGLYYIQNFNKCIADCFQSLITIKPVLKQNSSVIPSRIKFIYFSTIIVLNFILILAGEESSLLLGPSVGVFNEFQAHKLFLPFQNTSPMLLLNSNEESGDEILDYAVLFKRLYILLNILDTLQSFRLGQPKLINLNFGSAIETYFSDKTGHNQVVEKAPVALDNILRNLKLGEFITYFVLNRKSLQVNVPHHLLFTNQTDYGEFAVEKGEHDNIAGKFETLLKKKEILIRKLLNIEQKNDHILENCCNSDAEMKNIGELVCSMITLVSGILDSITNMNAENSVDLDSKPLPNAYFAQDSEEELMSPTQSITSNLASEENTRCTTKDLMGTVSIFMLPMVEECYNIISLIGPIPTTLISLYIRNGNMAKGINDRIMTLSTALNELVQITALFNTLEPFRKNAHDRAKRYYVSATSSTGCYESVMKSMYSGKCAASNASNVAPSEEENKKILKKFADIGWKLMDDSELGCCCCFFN
In short: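 Full-length yeast transcription factors or their DNA-binding domains, GST-tagged and expressed with PURExpress, were applied at about 100-200 nM to universal all-10-mer Agilent arrays. These arrays had been made double-stranded by primer extension on fresh or once-stripped slides. Detection used fluorescent anti-GST, normalisation used masliner, and E-scores for ungapped eight-base words pooled with reverse complements came from the Universal PBM Analysis Suite.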

Row | Sequence | PBM E-score
1 | AAGAGGCG | -0.0966
2 | CTGTAGGA | 0.0305
3 | CGTGACCA | -0.0518
4 | GCCTAGCC | -0.112
5 | AGCTCATA | 0.0514
6 | TTCGTAAA | 0.189
7 | AGGGAGCA | -0.332
8 | AGCATTGA | 0.116
9 | ACACAACT | 0.0265
10 | AATAGTCG | 0.0413
11 | GCGAGCCC | -0.121
12 | CCTAGATA | -0.0707
13 | CGGTAACA | 0.23
14 | GCCCGTGA | -0.263
15 | AATGCCAA | 0.112
16 | ACCTGCCC | -0.269
17 | AAACAAGC | 0.152
18 | AACGGTCC | -0.242
19 | GCTATACC | -0.149
20 | AGCACCTG | -0.00552
21 | CGCTCACC | -0.23
22 | AACTCTTA | 0.2
23 | GGCCCGAC | -0.208
24 | ATGTATTA | 0.293
25 | CGCACCGC | -0.199

Row | Sequence | PBM E-score
26 | ATCGAGGA | 0.113
27 | GACATCGA | -0.216
28 | GTTACGGA | 0.13
29 | ACACTCAA | 0.129
30 | TACTCGCA | 0.0352
31 | AAGCTACC | 0.123
32 | GCTGTACC | -0.172
33 | CCGGGACA | -0.134
34 | AAGGTGCG | -0.163
35 | AGGATTAG | 0.161
36 | CGCACGCC | -0.0621
37 | ATTTGTTC | 0.44
38 | ACTCTCTG | 0.122
39 | GGTCGTAA | 0.139
40 | AGGCATAC | 0.0297
41 | ACATTCAA | 0.0905
42 | AATAACCT | 0.0787
43 | GAGTGTCC | -0.013
44 | AATGGCCC | -0.3
45 | CGGAATGC | 0.00098
46 | ACGTCACG | -0.0505
47 | CCATCATA | 0.059
48 | GAGGTGAC | 0.16
49 | AGCTTACC | 0.00974
50 | GAGACAAC | 0.0289

Row | Sequence | PBM E-score
51 | AAAGCAGT | 0.0842
52 | CAGACCTG | -0.0169
53 | CTTATCTC | 0.15
54 | AACGAGGG | -0.0304
55 | AGGTTAAT | 0.0652
56 | ACTCAGAA | 0.11
57 | GAAGGCTA | 0.0975
58 | CTATGAAC | 0.0891
59 | AACACCAC | -0.0257
60 | GCTGAAAA | 0.102
61 | CGGATCCA | 0.0464
62 | AGTAGTCA | -0.0586
63 | AGGTTTAC | -0.065
64 | AGAGGACT | -0.27
65 | AAGTACAA | 0.135
66 | CTCCCCTC | -0.13
67 | CACGACAA | -0.0495
68 | GGGTATCA | 0.047
69 | ATCCGATA | 0.162
70 | CTCTTTTC | -0.143
71 | CTGAGAAA | 0.0476
72 | AAGATGCG | -0.0293
73 | CTCCCGGA | 0.00352
74 | AACACGAA | 0.19
75 | GACGTGTA | 0.0442

Row | Sequence | PBM E-score
76 | ATGCGCGA | -0.0615
77 | TCGATCCA | -0.0145
78 | ATCACAAG | 0.107
79 | ACTGGAGA | -0.148
80 | ATCAGCAA | 0.0477
81 | AAAGACCC | -0.0784
82 | ATGCTTGA | 0.113
83 | AGCCATTA | 0.0982
84 | GTCAGCAA | -0.00587
85 | ACCATCGA | -0.0688
86 | ACACGTTC | 0.137
87 | TGACATCA | 0.0563
88 | AAGAAACC | 0.0745
89 | TAATTAGA | 0.139
90 | AATGCCGG | -0.0476
91 | GTTGCAAC | -0.0224
92 | CTACATAA | 0.0125
93 | CATAGGCC | -0.172
94 | ACTATTAC | 0.134
95 | CCTGGAGC | -0.214
96 | CTAAAGTC | -0.103
97 | TATAACCA | 0.0875
98 | ACATTTGA | 0.108
99 | TAAGCGAA | 0.0634
100 | AATCTTGC | 0.206

Row | Sequence | PBM E-score
101 | ACGGCCGG | -0.181
102 | CCAACCTC | 0.0835
103 | GGCTCAAA | -0.124
104 | ACTCGCCC | -0.209
105 | CTTGGCGA | -0.329
106 | AAGAGCTA | 0.0269
107 | CAAGGATG | -0.124
108 | AGACCAAC | -0.0961
109 | GCGATCAC | -0.207
110 | AAAAATAT | 0.349
111 | ATTGATTG | 0.25
112 | ATAAATTG | 0.365
113 | GCTTTAAC | 0.0802
114 | ACGCTATG | 0.0168
115 | CTAGGATA | 0.0752
116 | CGTGAACG | -0.302
117 | CCATTCCC | -0.078
118 | CGTTCACC | 0.0323
119 | AAAACGTA | 0.175
120 | GACTTTGC | -0.144
121 | AAAACATA | 0.197
122 | AGTATCTC | 0.0683
123 | AATACGTG | 0.0765
124 | GACGGATC | 0.119
125 | GCCAGCTA | -0.153

Row | Sequence | PBM E-score
126 | GGCCGGAC | -0.316
127 | CGGGTGAA | -0.038
128 | CCCGCGCG | -0.0304
129 | GAGAGAAA | 0.0771
130 | TAACCGTA | -0.0571
131 | GCTATTCA | 0.209
132 | GGACCCAA | -0.141
133 | ATCCAGGG | -0.0176
134 | CGTCGCCA | -0.138
135 | CTGCCTAC | 0.0172
136 | AGTCCGGG | 0.0519
137 | GTCCTGAA | -0.0199
138 | ATGCGGCG | -0.0285
139 | AATCCAGA | 0.295
140 | CAGAAGAA | 0.037
141 | AACATTCT | 0.17
142 | CTGGACAC | -0.277
143 | AAACTGTT | 0.239
144 | AACTCGTG | 0.203
145 | AGCAACTG | -0.116
146 | ACTAAAAT | 0.272
147 | TCGGACGA | 0.0295
148 | CTATTCCA | 0.17
149 | AATCGCCC | -0.276
150 | AGGATCAT | 0.261

Row | Sequence | PBM E-score
151 | GCGGGGTA | -0.228
152 | AGCCCGGG | -0.267
153 | GCAATCAA | 0.093
154 | ATTACCCC | -0.0788
155 | CCGCGACA | 0.0211
156 | CTAAATAA | 0.202
157 | TACAATGA | 0.0675
158 | GGTGAGGA | 0.0514
159 | AAGCACGT | -0.0664
160 | CGGTCATA | -0.0603
161 | GCTACTAC | 0.251
162 | ATTTGGAC | 0.0161
163 | TAGCAAGA | -0.0183
164 | CAATTACA | 0.118
165 | ACCACCGC | -0.197
166 | CCGGACAG | -0.188
167 | CATAGAGA | 0.0779
168 | CCCGGAAG | 0.114
169 | CCCGCCTC | -0.17
170 | AGACGCTA | -0.125
171 | AATGGCAA | 0.0593
172 | ATAGCGGC | -0.106
173 | ATATTAGC | 0.215
174 | GGTAGGAC | -0.277
175 | AGGTCACG | -0.203

Row | Sequence | PBM E-score
176 | AATGACAC | 0.0865
177 | CCTAGCAC | -0.118
178 | TAAGATTA | 0.11
179 | CTCGACGC | -0.0138
180 | CCATCTAC | 0.00382
181 | CCAGATGG | -0.0622
182 | CGGAAATC | 0.067
183 | ACTATAGC | -0.192
184 | ACGTTCAC | 0.00149
185 | CTGTACAC | -0.0974
186 | CACCGCTG | -0.249
187 | AGAACTAC | 0.0374
188 | GAAGCCAA | -0.0905
189 | ATTAATGC | 0.22
190 | CGCAAAGA | -0.00133
191 | CACAAGAG | -0.088
192 | GCTGCTCA | -0.11
193 | ATGGATCG | 0.0268
194 | ACCCGCTC | -0.361
195 | GAATGCAC | 0.0511
196 | ATAGGGAA | 0.0951
197 | GGCACTCA | -0.237
198 | CAGCATGC | -0.129
199 | ATGGCTCG | -0.152
200 | ATCCTTCC | -0.18

Row | Sequence | PBM E-score
201 | TGCGCGCA | -0.123
202 | CTCACTCA | 0.0508
203 | CGACAAGA | 0.00352
204 | ACATTCGC | -0.0539
205 | AAGAGTAG | -0.0106
206 | AAGCGCGT | -0.0855
207 | TGAGGAAA | 0.0614
208 | CGTGAAGC | -0.295
209 | ACCAACGT | 0.0804
210 | AAGTGGGT | -0.0704
211 | ATGAAAAA | 0.165
212 | AAGGACGC | -0.105
213 | ACCGGTCT | -0.4
214 | AGTTTCAG | 0.0896
215 | ACGGCTAC | 0.0148
216 | CAGTTAAG | 0.0532
217 | CCGGACCC | -0.243
218 | GGCCCCTA | -0.447
219 | CTTTAGCC | -0.0126

Reference: the supplement of paper PMC3334620
